Measured values published in publication PMC4599898.
These are yes or no findings as the source states them, for the method shown. Binding seen in cells or lysates may run through a third protein.

Key:
Test in all cases: split reporter; split YFP BiFC in transiently transformed Arabidopsis protoplasts, 2 ug of each plasmid, incubated overnight; read by flow cytometry (at least three biological replicates, minimum 30,000 cells); each pair tested in both fusion conformations (SPN and SPC); positive where the normalized BiFC score lies above the threshold 0.01 in both conformations
[1] = target: T1, Hy5 (Arabidopsis thaliana) (UniProt O24646)
T1 sequence: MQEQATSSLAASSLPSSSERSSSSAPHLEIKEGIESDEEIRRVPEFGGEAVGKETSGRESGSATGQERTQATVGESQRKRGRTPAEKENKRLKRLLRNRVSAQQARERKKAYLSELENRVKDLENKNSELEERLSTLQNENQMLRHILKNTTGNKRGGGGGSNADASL

[2] = target: T2, bZIP25 (Arabidopsis thaliana) (UniProt Q9M1G6)
T2 sequence: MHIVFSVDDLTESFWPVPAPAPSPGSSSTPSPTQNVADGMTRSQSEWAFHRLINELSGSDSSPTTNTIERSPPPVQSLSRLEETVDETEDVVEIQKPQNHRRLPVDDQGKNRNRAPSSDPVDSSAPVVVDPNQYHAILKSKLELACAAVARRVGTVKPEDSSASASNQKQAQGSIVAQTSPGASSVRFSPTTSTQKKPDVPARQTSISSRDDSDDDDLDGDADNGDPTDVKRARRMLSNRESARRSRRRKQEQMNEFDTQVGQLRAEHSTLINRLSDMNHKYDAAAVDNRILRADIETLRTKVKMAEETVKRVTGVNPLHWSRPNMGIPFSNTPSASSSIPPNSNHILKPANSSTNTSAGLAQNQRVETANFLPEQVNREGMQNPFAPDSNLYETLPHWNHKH

[3] = target: T3, bZIP16 (Arabidopsis thaliana) (UniProt Q501B2)
T3 sequence: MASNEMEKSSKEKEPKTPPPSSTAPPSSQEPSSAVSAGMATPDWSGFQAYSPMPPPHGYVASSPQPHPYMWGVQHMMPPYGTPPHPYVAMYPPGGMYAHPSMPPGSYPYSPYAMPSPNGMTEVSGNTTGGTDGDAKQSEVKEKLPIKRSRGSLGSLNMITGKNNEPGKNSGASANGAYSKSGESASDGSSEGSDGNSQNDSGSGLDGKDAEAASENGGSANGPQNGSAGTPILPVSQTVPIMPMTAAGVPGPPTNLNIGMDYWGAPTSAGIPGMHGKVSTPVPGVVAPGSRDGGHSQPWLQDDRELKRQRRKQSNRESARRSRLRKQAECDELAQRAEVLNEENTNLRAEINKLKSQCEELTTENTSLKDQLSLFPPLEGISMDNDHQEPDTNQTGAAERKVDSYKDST

[4] = target: T4, bZIP10 (Arabidopsis thaliana) (UniProt O22763)
T4 sequence: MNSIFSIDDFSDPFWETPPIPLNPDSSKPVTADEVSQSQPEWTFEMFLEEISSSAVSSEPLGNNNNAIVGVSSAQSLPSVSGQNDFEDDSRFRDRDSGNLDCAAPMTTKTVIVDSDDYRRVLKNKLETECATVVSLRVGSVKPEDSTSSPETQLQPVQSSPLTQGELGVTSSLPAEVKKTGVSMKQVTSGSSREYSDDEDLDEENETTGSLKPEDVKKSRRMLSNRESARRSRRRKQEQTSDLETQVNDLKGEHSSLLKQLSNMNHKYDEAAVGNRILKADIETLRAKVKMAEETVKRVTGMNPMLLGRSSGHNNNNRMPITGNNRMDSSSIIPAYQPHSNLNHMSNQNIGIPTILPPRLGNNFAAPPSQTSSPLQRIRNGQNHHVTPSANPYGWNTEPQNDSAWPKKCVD

[5] = target: T5, GBF2 (Arabidopsis thaliana) (UniProt P42775)
T5 sequence: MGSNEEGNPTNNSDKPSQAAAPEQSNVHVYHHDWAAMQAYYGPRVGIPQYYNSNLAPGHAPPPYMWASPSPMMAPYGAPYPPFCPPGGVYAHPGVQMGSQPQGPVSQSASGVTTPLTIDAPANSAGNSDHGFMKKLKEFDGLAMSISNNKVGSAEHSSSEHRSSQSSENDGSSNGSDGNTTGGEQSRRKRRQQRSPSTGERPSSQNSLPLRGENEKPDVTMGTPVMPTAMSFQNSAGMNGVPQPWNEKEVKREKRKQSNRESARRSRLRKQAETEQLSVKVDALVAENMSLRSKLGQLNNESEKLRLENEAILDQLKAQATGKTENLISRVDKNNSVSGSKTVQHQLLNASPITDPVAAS

[6] = target: T6, GBF1 (Arabidopsis thaliana) (UniProt P42774)
T6 sequence: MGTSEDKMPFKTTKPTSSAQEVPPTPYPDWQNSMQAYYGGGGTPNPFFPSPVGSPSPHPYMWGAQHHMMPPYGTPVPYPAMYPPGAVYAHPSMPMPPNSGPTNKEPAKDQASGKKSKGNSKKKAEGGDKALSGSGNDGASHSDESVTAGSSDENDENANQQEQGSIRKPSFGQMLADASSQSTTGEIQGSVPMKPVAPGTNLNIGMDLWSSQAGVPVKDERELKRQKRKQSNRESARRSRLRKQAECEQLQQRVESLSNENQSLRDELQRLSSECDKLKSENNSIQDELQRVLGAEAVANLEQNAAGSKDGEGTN

binding [1]: no binding | binding [2]: no binding | binding [3]: no binding | binding [4]: no binding | binding [5]: no binding | binding [6]: no binding
B1: bZIP9 (protein, UniProt Q9FUD3 1-277)
chain: MDNHTAKDIGMKRSASELALQEYLTTSPLDPCFDLMNRDYTCELRDSLLWSEGLFPAGPFRDAQSSICENLSADSPVSANKPEVRGGVRRTTSGSSHVNSDDEDAETEAGQSEMTNDPNDLKRIRRMNSNRESAKRSRRRKQEYLVDLETQVDSLKGDNSTLYKQLIDATQQFRSAGTNNRVLKSDVETLRVKVKLAEDLVARGSLTSSLNQLLQTHLSPPSHSISSLHYTGNTSPAITVHSDQSLFPGMTLSGQNSSPGLGNVSSEAVSCVSDIWP
